Many values rest on one well or one pass, so single values are uncertain.
Legend:
CHO-K1 [1] = test: micronucleus frequency (% of nucleated events); higher = more micronuclei (genotoxic)
CHO-K1 [2] = test: relative survival (nuclei to bead ratio vs DMSO control) (% of vehicle control); higher = more surviving cells
CHO-K1 [3] = test: hypodiploid nuclei frequency (% of nucleated events); higher = more hypodiploid events (aneugenic)
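Wherever hypodiploid nuclei frequency (% of nucleated events) is given: hypodiploid nuclei gated on a flow cytometer with 488 nm excitation after SYTOX Green staining, cultures at 37 °C, positive controls vinblastine without S9 and cyclophosphamide with S9.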
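Wherever micronucleus frequency (% of nucleated events) is given: cells lysed with nuclei stained by SYTOX Green, then micronucleus-gated events counted against nucleated events by flow cytometry with 488 nm excitation.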
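Wherever relative survival (nuclei to bead ratio vs DMSO control) is given: Lysed-cell nuclei stained with SYTOX Green and counted against counting beads by flow cytometry at 488 nm excitation, with vinblastine (no S9) and cyclophosphamide (plus S9) as positive controls.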

c1ccc2c(c1)Nc1ccccc1S2 [Phenothiazine]
Conditions	hypodiploid nuclei frequency, CHO-K1 [3] [%]	micronucleus frequency, CHO-K1 [1] [%]	relative survival, CHO-K1 [2]
concentration: 4.5 (µM), S9 metabolic activation: with S9, exposure time: 3-4 hours	0.3	1.58	77.3
concentration: 4.5 (µM), S9 metabolic activation: without S9, exposure time: 24 hours	0.86	1.02	103
concentration: 5.63 (µM), S9 metabolic activation: with S9, exposure time: 3-4 hours	0.16	0.9	94.1
concentration: 5.63 (µM), S9 metabolic activation: without S9, exposure time: 24 hours	2.18	0.84	96.3
concentration: 7.04 (µM), S9 metabolic activation: with S9, exposure time: 3-4 hours	0.18	0.64	120
concentration: 7.04 (µM), S9 metabolic activation: without S9, exposure time: 24 hours	12.7	1.16	84.4
concentration: 8.8 (µM), S9 metabolic activation: with S9, exposure time: 3-4 hours	0.28	1.44	60.5
concentration: 8.8 (µM), S9 metabolic activation: without S9, exposure time: 24 hours	50.2	2.24	52.7
concentration: 11 (µM), S9 metabolic activation: with S9, exposure time: 3-4 hours	0.04	1.14	90
concentration: 11 (µM), S9 metabolic activation: without S9, exposure time: 24 hours	3.4	0.94	84.7
concentration: 13.7 (µM), S9 metabolic activation: with S9, exposure time: 3-4 hours	0.26	0.9	102
concentration: 13.7 (µM), S9 metabolic activation: without S9, exposure time: 24 hours	1.76	1.12	98.1
concentration: 17.2 (µM), S9 metabolic activation: with S9, exposure time: 3-4 hours	0.14	1.76	84
concentration: 17.2 (µM), S9 metabolic activation: without S9, exposure time: 24 hours	5.5	1.86	73.1
concentration: 21.5 (µM), S9 metabolic activation: with S9, exposure time: 3-4 hours	0.16	1.7	81.4
concentration: 21.5 (µM), S9 metabolic activation: without S9, exposure time: 24 hours	4	1.98	96
concentration: 26.8 (µM), S9 metabolic activation: with S9, exposure time: 3-4 hours	0.28	2.82	60
concentration: 26.8 (µM), S9 metabolic activation: without S9, exposure time: 24 hours	0.78	1.04	90.4
concentration: 33.6 (µM), S9 metabolic activation: with S9, exposure time: 3-4 hours	0.56	4.12	63.3
concentration: 33.6 (µM), S9 metabolic activation: without S9, exposure time: 24 hours	1.06	1	72.5
concentration: 41.9 (µM), S9 metabolic activation: with S9, exposure time: 3-4 hours	0.87	5.66	43
concentration: 41.9 (µM), S9 metabolic activation: without S9, exposure time: 24 hours	1.76	0.92	75.8
concentration: 52.4 (µM), S9 metabolic activation: with S9, exposure time: 3-4 hours	–	–	38.3
concentration: 52.4 (µM), S9 metabolic activation: without S9, exposure time: 24 hours	5.53	1.34	70.5
concentration: 65.5 (µM), S9 metabolic activation: with S9, exposure time: 3-4 hours	–	–	37
concentration: 65.5 (µM), S9 metabolic activation: without S9, exposure time: 24 hours	24.9	1.47	46.8
concentration: 81.9 (µM), S9 metabolic activation: with S9, exposure time: 3-4 hours	–	–	36.3
concentration: 81.9 (µM), S9 metabolic activation: without S9, exposure time: 24 hours	–	–	28
concentration: 102 (µM), S9 metabolic activation: with S9, exposure time: 3-4 hours	–	–	31.6
concentration: 102 (µM), S9 metabolic activation: without S9, exposure time: 24 hours	–	–	19.5
concentration: 128 (µM), S9 metabolic activation: with S9, exposure time: 3-4 hours	–	–	39.8
concentration: 128 (µM), S9 metabolic activation: without S9, exposure time: 24 hours	–	–	18.2
concentration: 160 (µM), S9 metabolic activation: with S9, exposure time: 3-4 hours	–	–	37.9
concentration: 160 (µM), S9 metabolic activation: without S9, exposure time: 24 hours	–	–	20.6
concentration: 200 (µM), S9 metabolic activation: with S9, exposure time: 3-4 hours	1.36	6.95	58
concentration: 200 (µM), S9 metabolic activation: without S9, exposure time: 24 hours	–	–	18.4

CCCOC(=O)c1cc(O)c(O)c(O)c1 [Propyl gallate]
Conditions	hypodiploid nuclei frequency, CHO-K1 [3] [%]	micronucleus frequency, CHO-K1 [1] [%]	relative survival, CHO-K1 [2]
concentration: 4.5 (µM), S9 metabolic activation: with S9, exposure time: 3-4 hours	0.26	1.02	111
concentration: 4.5 (µM), S9 metabolic activation: without S9, exposure time: 24 hours	0.76	1.2	92.3
concentration: 5.63 (µM), S9 metabolic activation: with S9, exposure time: 3-4 hours	0.24	1.28	131
concentration: 5.63 (µM), S9 metabolic activation: without S9, exposure time: 24 hours	0.7	1.62	111
concentration: 7.04 (µM), S9 metabolic activation: with S9, exposure time: 3-4 hours	0.28	0.98	102
concentration: 7.04 (µM), S9 metabolic activation: without S9, exposure time: 24 hours	0.72	1.48	125
concentration: 8.8 (µM), S9 metabolic activation: with S9, exposure time: 3-4 hours	0.2	1.68	113
concentration: 8.8 (µM), S9 metabolic activation: without S9, exposure time: 24 hours	0.72	1.68	120
concentration: 11 (µM), S9 metabolic activation: with S9, exposure time: 3-4 hours	0.18	1.36	111
concentration: 11 (µM), S9 metabolic activation: without S9, exposure time: 24 hours	0.52	1.54	113
concentration: 13.7 (µM), S9 metabolic activation: with S9, exposure time: 3-4 hours	0.22	1.18	112
concentration: 13.7 (µM), S9 metabolic activation: without S9, exposure time: 24 hours	0.68	1.76	89
concentration: 17.2 (µM), S9 metabolic activation: with S9, exposure time: 3-4 hours	0.32	1.46	96.2
concentration: 17.2 (µM), S9 metabolic activation: without S9, exposure time: 24 hours	0.64	1.9	99.3
concentration: 21.5 (µM), S9 metabolic activation: with S9, exposure time: 3-4 hours	0.24	1.32	118
concentration: 21.5 (µM), S9 metabolic activation: without S9, exposure time: 24 hours	0.72	2.08	73.9
concentration: 26.8 (µM), S9 metabolic activation: with S9, exposure time: 3-4 hours	0.24	1.54	87.3
concentration: 26.8 (µM), S9 metabolic activation: without S9, exposure time: 24 hours	0.88	2.22	69.3
concentration: 33.6 (µM), S9 metabolic activation: with S9, exposure time: 3-4 hours	0.2	1.52	94.3
concentration: 33.6 (µM), S9 metabolic activation: without S9, exposure time: 24 hours	1.12	3.54	84.9
concentration: 41.9 (µM), S9 metabolic activation: with S9, exposure time: 3-4 hours	0.3	2.96	88.7
concentration: 41.9 (µM), S9 metabolic activation: without S9, exposure time: 24 hours	1.14	3.1	50.8
concentration: 52.4 (µM), S9 metabolic activation: with S9, exposure time: 3-4 hours	0.36	2.74	72.8
concentration: 52.4 (µM), S9 metabolic activation: without S9, exposure time: 24 hours	0.92	2.72	51.1
concentration: 65.5 (µM), S9 metabolic activation: with S9, exposure time: 3-4 hours	0.36	2.16	62.8
concentration: 65.5 (µM), S9 metabolic activation: without S9, exposure time: 24 hours	0.5	2.52	47.6
concentration: 81.9 (µM), S9 metabolic activation: with S9, exposure time: 3-4 hours	0.4	1.8	64.3
concentration: 81.9 (µM), S9 metabolic activation: without S9, exposure time: 24 hours	0.64	2.8	44.1
concentration: 102 (µM), S9 metabolic activation: with S9, exposure time: 3-4 hours	0.2	2.04	51
concentration: 102 (µM), S9 metabolic activation: without S9, exposure time: 24 hours	0.84	3.42	51
concentration: 128 (µM), S9 metabolic activation: with S9, exposure time: 3-4 hours	0.18	1.92	47.5
concentration: 128 (µM), S9 metabolic activation: without S9, exposure time: 24 hours	0.46	2.36	40.4
concentration: 160 (µM), S9 metabolic activation: with S9, exposure time: 3-4 hours	0.38	1.52	45.5
concentration: 160 (µM), S9 metabolic activation: without S9, exposure time: 24 hours	0.58	1.96	46.3
concentration: 200 (µM), S9 metabolic activation: with S9, exposure time: 3-4 hours	0.4	1.82	51.7
concentration: 200 (µM), S9 metabolic activation: without S9, exposure time: 24 hours	–	–	37.5
